# The list shows a part of the results.
# System: PfSIP2 AP2 domain 1 (GST-tagged)
# Assay: gcPBM binding intensity (ln(normalized median fluorescence intensity)); higher = stronger DNA binding
# Procedure, shortened: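 DNA-binding domains from P. falciparum, fused to GST and produced in E. coli, were put on an Agilent 4 × 180k double-stranded probe array for 1 h in 1× PBS holding 1% milk, 0.2 mg/ml BSA, 0.5% salmon testes DNA and 0.03% Triton X-100. Probes were primer-extended, 36 bp long and drawn from intergenic genomic regions, with negative controls included. After Alexa488 anti-GST antibody detection and a 488 nm scan, binding intensity was set as the highest Masliner-normalised natural-log median intensity across replicate spots of either probe orientation.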
row,Sequence,gcPBM binding intensity (ln)
1,TAATTAAATACATTAACACACACACTAATATATACA [CACACA_site8938],7
2,TTCCTGTTAATTACAACACACAATTTTTATTTTATG [CACACA_site779],7.16
3,AAGGCATGACTATCTGCACACATAAAAATAAGAAAT [CACACA_site8180],7.23
4,AATTTTTTTTTTTTGTGTCCTCATAATTCTTCATTC [XGTACX_site5042],7.03
5,TAAACATAATAATATACACACATATATTGATATATA [CACACA_site2144],6.83
6,TAAAAAAAAATATAATGTACGTATAAATATATATTA [XGTACX_site5085],6.98
7,ATTTTTTTGGTAATTTGTACATAATATATACATAAT [XGTACX_site3742],7.21
8,AAAATTAAAACCTACACACACATTTAAAAAAAAAAA [CACACA_site3068],6.8
9,TATATTTATTTAAAAACATGCATTTTTTTTTTCCGT [TGCATGCA_site44],6.76
10,TTTTTTTTTTTTACATGTACTTATTTTAAATATAAA [XGTACX_site805],7.12
11,TATATTATAGGTTGTGTACACATATTATATAGTACT [CACACA_site4583],7.16
12,ATATATTTATAGACTTGTACATATATATACGATATA [XGTACX_site8890],7
13,CATCTGGTATCTAATAGTACATATATATAATATCTT [XGTACX_site2774],6.96
14,AACAAAAGAAAAAAATATATATATTCGTCCTATTTT [CACACA_negctrl_site444],7.02
15,TATATATGCATTAAAGTGTTTTTTTTTTTTTTTTTT [CACACA_negctrl_site1353],7.72
16,ATGTGTATATGTTAATGTACAAATTTTGAAAATGCC [XGTACX_site2685],7.46
17,TTAAAAAATATATACGTTGATATAATACAACTTGAC [CACACA_negctrl_site1551],6.92
18,TGTATAACCATAAATTGTACAGAAAAAAGTATAAAA [XGTACX_site1493],6.95
19,ATTTTTTTTTTTTATGGTACACACACGCGTATGGTT [XGTACX_site3888],7.18

row,Sequence,gcPBM binding intensity (ln)
1,TTTCAACTTTTGTCATGTACACATAATTTTATTGCA [XGTACX_site6701],7.07
2,ATTTATTTATCAAATATTATCTTAAAAAAAAAAGAA [CACACA_negctrl_site1345],6.93
3,ATATTAAATATATACAGTACACATTACAATACAATA [XGTACX_site3221],7.17
4,CTTTGTAGTTGGTCCACACACATATCTGGAAGAATA [CACACA_site4834],6.94
5,TAAGCGTTTTTTAAAACACACATAAGAACTAAATGA [CACACA_site1670],6.82
6,TATTTTCCATGAGGTAGTACACATTAAAAAATCGTT [XGTACX_site6887],7.03
7,TTTCTTAAACCGTACAGTACACACCTTTATAATGTT [XGTACX_site434],7.01
8,TAATATTAAAAAGAGACACACAAAAATATTAAAAAA [CACACA_site3120],7.02
9,TTACACCTTAGGATCTGTACAAATATATGACAAATC [XGTACX_site4333],7
10,AAGGTTTTGGGTTTTAATTAATTTAATATGATTATA [XGTACX_negctrl_site147],6.84
11,CGACTTTTAAAATATACACACATATAAATAAATATA [CACACA_site6523],7.11
12,TTACAATATAATAAATGTACATATAACAAATATATA [XGTACX_site2199],7.1
13,TTTTTTTTTTTTTGTAGTACATACTATTTTATTAAT [XGTACX_site950],7.01
14,AGAATTATATACACAAGTACATAATGACATATATAT [XGTACX_site5617],7.07
15,TAGATGTATTTTTAAAGTACTTTTTAATATATAATC [XGTACX_site1431],7.15
16,TAAAAAATTATATTCACACACATACACATATATATA [CACACA_site545],7.2
17,TGTATATCACATGAGAGGTGGAGATGGGGATAAATA [CACACA_negctrl_site1148],6.83
18,ATACAATTCTTACATTGTACTTTTTTTTTTTATCAC [XGTACX_site6327],6.96
19,TACAACCTTTAGACAAGTACAAGAATTATATGTGGC [XGTACX_site4581],7.25

row,Sequence,gcPBM binding intensity (ln)
1,ACAAAATATATAGACACACAAACACAAATATGTTTT [CACACA_site3016],7.04
2,TTAATATGAATTATTACATGCAACTAAATATATTTA [TGCATGCA_site490],6.99
3,TAATACAGATTAAAAGGTACACTTATTTGGTATTAT [XGTACX_site4966],6.95
4,TCTATACCTATTCTTACACACATATGTATAAATATA [CACACA_site6407],7.3
5,TTGACAACTCTTTTCATACACACAAAAAAAAAAAAA [CACACA_site2362],6.98
6,ACTAAAAAAATAAACACACAGATTTATATAATATAT [CACACA_site4884],6.97
7,TATCTTTATATATAGTGTACACATTAAACAAATCTC [XGTACX_site7381],7.09
8,TATTAATGATAAGAATATTTTATATGATACATGCAT [CACACA_negctrl_site923],6.7
9,TATAAATAAATATGTACACACATATATACCTTTCAT [CACACA_site7291],7.04
10,AATAATTAACAAAAAAAAAAAAAAAAAAAAAAAAAA [GTGCAC_negctrl_site255],6.85
11,TATGTATTATATATTTGTACTCATTCTAATTCCTTC [XGTACX_site7294],6.95
12,ACATATATGTATAATACACACACTAATATATAATTG [CACACA_site1966],7.15
13,ATTTAAAAAAAAACGGAATTTTTTTTTTTTTTAAAG [XGTACX_negctrl_site91],6.68
14,ATATTCATATATTTACGTACATACATTTATATATTT [XGTACX_site7644],7.07
15,TATATTAATGTTCATAGTACGTATGATTAGGAAAAA [XGTACX_site616],7.15
16,GGAAAGACAGTTCACAGTACCCAGGAAATCTGCGGA [XGTACX_site4933],6.49
17,TTTAGTTTTTATATAGCACACATATTGTGATTATGT [CACACA_site8316],6.96
18,AATTTATAAAAGAAGAGGACACATATAAATATAAAT [XGTACX_site59],6.96
